{"source": "the supplement of paper PMC4604168 (melanoma cell lines)", "note": "Some of the results follow. Single values are uncertain, as repeats are few or missing.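 Also: cells treated in 1,536-well plates, then fixed and DAPI-stained, with nuclei counted from automated high-throughput microscope images.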", "data": [{"system": "G361", "test": "cell count relative to DMSO control; higher = more viable cells", "conditions": "library dose: standard library concentration; 72 h", "units": {"cell count": "%"}, "values": [{"smiles": "COc1cc([C@@H]2c3cc4c(cc3[C@@H](O[C@@H]3O[C@@H]5CO[C@@H](C)O[C@H]5[C@H](O)[C@H]3O)[C@H]3COC(=O)[C@H]23)OCO4)cc(OC)c1O", "note": "[etoposide] + Oc1nc(-c2ccc(C(F)(F)F)cc2)nc2c1CSCC2 [XAV939] (first compound 0.1 µM, partner dose 10 µM)", "cell count": 78.7}, {"smiles": "COc1cc([C@@H]2c3cc4c(cc3[C@@H](O[C@@H]3O[C@@H]5CO[C@@H](C)O[C@H]5[C@H](O)[C@H]3O)[C@H]3COC(=O)[C@H]23)OCO4)cc(OC)c1O", "note": "[etoposide] + COc1ccc(C2=N[C@@H](c3ccc(Cl)cc3)[C@@H](c3ccc(Cl)cc3)N2C(=O)N2CCNC(=O)C2)c(OC(C)C)c1 [Nutlin-3] (first compound 0.1 µM, partner dose 0.5 µM)", "cell count": 83.5}, {"smiles": "Cn1cnc2c(F)c(Nc3ccc(Br)cc3Cl)c(C(=O)NOCCO)cc21", "note": "[selumetinib] + COc1ccc(COc2ccc(Cc3cnc(N)nc3N)cc2OC)cc1 [GW2580] (first compound 0.075 µM, partner dose 5 µM)", "cell count": 74.5}, {"smiles": "C[C@]1(O)C[C@@H](c2nc(-c3ccc4ccc(-c5ccccc5)nc4c3)c3c(N)nccn32)C1", "note": "+ Cn1c(=O)n(-c2ccc(C(C)(C)C#N)cc2)c2c3cc(-c4cnc5ccccc5c4)ccc3ncc21 [NVP-BEZ235] (first compound 2 µM, partner dose 0.02 µM)", "cell count": 42.1}, {"smiles": "Cn1cnc2c(F)c(Nc3ccc(Br)cc3Cl)c(C(=O)NOCCO)cc21", "note": "[selumetinib] + O=C(O)c1ccc(-c2c[nH]c3ncc(-c4ccccc4)cc23)cc1C1CCCC1 [GSK650394] (first compound 0.075 µM, partner dose 0.8 µM)", "cell count": 51.2}, {"smiles": "COc1cc([C@@H]2c3cc4c(cc3[C@@H](O[C@@H]3O[C@@H]5CO[C@@H](C)O[C@H]5[C@H](O)[C@H]3O)[C@H]3COC(=O)[C@H]23)OCO4)cc(OC)c1O", "note": "[etoposide] + COc1ccc2c(c1)CCC1C2CCC2(C)C(NCCCCCCN3C(=O)C=CC3=O)CCC12 [U73122] (first compound 0.1 µM, partner dose 2 µM)", "cell count": 97.9}, {"smiles": "COc1cc([C@@H]2c3cc4c(cc3[C@@H](O[C@@H]3O[C@@H]5CO[C@@H](C)O[C@H]5[C@H](O)[C@H]3O)[C@H]3COC(=O)[C@H]23)OCO4)cc(OC)c1O", "note": "[etoposide] + COc1ccc(-c2ccc3c(N4CCOCC4)nc(N4C[C@@H](C)O[C@@H](C)C4)nc3n2)cc1CO [KU0063794] (first compound 0.1 µM, partner dose 0.1 µM)", "cell count": 95.1}, {"smiles": "COc1cc([C@@H]2c3cc4c(cc3[C@@H](O[C@@H]3O[C@@H]5CO[C@@H](C)O[C@H]5[C@H](O)[C@H]3O)[C@H]3COC(=O)[C@H]23)OCO4)cc(OC)c1O", "note": "[etoposide] + Cc1cc(N2CCOCC2)cc2[nH]c(-c3c(NC[C@@H](O)c4cccc(Cl)c4)cc[nH]c3=O)nc12 [BMS536924] (first compound 0.1 µM, partner dose 1 µM)", "cell count": 95.1}, {"smiles": "Cn1cnc2c(F)c(Nc3ccc(Br)cc3Cl)c(C(=O)NOCCO)cc21", "note": "[selumetinib] + CN1CCN(c2ccc3nc(-c4c(N)c5c(F)cccc5[nH]c4=O)[nH]c3c2)CC1 [Dovitinib] (first compound 0.075 µM, partner dose 0.5 µM)", "cell count": 33.8}, {"smiles": "C[C@]1(O)C[C@@H](c2nc(-c3ccc4ccc(-c5ccccc5)nc4c3)c3c(N)nccn32)C1", "note": "+ O=S(=O)(c1ccccc1)N(CC(F)(F)F)c1ccc(C(O)(C(F)(F)F)C(F)(F)F)cc1 [T0901317] (first compound 2 µM, partner dose 7 µM)", "cell count": 77.2}]}, {"system": "IPC-298", "test": "cell count relative to DMSO control; melanoma cells; higher = more viable cells", "conditions": "library dose: standard library concentration; 72 h", "units": {"cell count": "%"}, "values": [{"smiles": "COc1cc([C@@H]2c3cc4c(cc3[C@@H](O[C@@H]3O[C@@H]5CO[C@@H](C)O[C@H]5[C@H](O)[C@H]3O)[C@H]3COC(=O)[C@H]23)OCO4)cc(OC)c1O", "note": "[etoposide] + NC(=O)Nc1cc(-c2cccc(F)c2)sc1C(=O)N[C@H]1CCCNC1 [AZD7762] (first compound 0.1 µM, partner dose 0.1 µM)", "cell count": 86.1}, {"smiles": "CCN(CC)CCNC(=O)c1c(C)[nH]c(/C=C2\\C(=O)Nc3ccc(F)cc32)c1C", "note": "[sunitinib] + Nc1ccn([C@@H]2O[C@H](CO)[C@@H](O)C2(F)F)c(=O)n1 [gemcitabine] (first compound 2 µM, partner dose 0.002 µM)", "cell count": 39.4}, {"smiles": "C[C@]1(O)C[C@@H](c2nc(-c3ccc4ccc(-c5ccccc5)nc4c3)c3c(N)nccn32)C1", "note": "+ O=C(O)c1ccc2c(c1)nc(Nc1cccc(Cl)c1)c1ccncc12 [CX4945] (first compound 2 µM, partner dose 2 µM)", "cell count": 50.8}, {"smiles": "COc1cc([C@@H]2c3cc4c(cc3[C@@H](O[C@@H]3O[C@@H]5CO[C@@H](C)O[C@H]5[C@H](O)[C@H]3O)[C@H]3COC(=O)[C@H]23)OCO4)cc(OC)c1O", "note": "[etoposide] + CS(=O)(=O)c1ccc(C(=O)Nc2ccc(Cl)c(-c3ccccn3)c2)c(Cl)c1 [vismodegib] (first compound 0.1 µM, partner dose 5 µM)", "cell count": 72.7}, {"smiles": "Cn1cnc2c(F)c(Nc3ccc(Br)cc3Cl)c(C(=O)NOCCO)cc21", "note": "[selumetinib] + COC(=O)c1sccc1S(=O)(=O)Nc1ccc(Nc2ccccc2)cc1OC [GSK0660] (first compound 0.075 µM, partner dose 5 µM)", "cell count": 60.1}, {"smiles": "CCN(CC)CCNC(=O)c1c(C)[nH]c(/C=C2\\C(=O)Nc3ccc(F)cc32)c1C", "note": "[sunitinib] + COc1cc(Nc2ncc(F)c(Nc3ccc4c(n3)NC(=O)C(C)(C)O4)n2)cc(OC)c1OC [Tamatinib] (first compound 2 µM, partner dose 2 µM)", "cell count": 84.7}, {"smiles": "Cn1cnc2c(F)c(Nc3ccc(Br)cc3Cl)c(C(=O)NOCCO)cc21", "note": "[selumetinib] + CC(C)(C)c1cnc(CSc2cnc(NC(=O)C3CCNCC3)s2)o1 [SNS-032] (first compound 0.075 µM, partner dose 0.05 µM)", "cell count": 62.3}, {"smiles": "C[C@]1(O)C[C@@H](c2nc(-c3ccc4ccc(-c5ccccc5)nc4c3)c3c(N)nccn32)C1", "note": "+ CCN(CC)CCNC(=O)c1c(C)[nH]c(/C=C2\\C(=O)Nc3ccc(F)cc32)c1C [sunitinib] (first compound 2 µM, partner dose 2 µM)", "cell count": 74.5}, {"smiles": "COc1cc([C@@H]2c3cc4c(cc3[C@@H](O[C@@H]3O[C@@H]5CO[C@@H](C)O[C@H]5[C@H](O)[C@H]3O)[C@H]3COC(=O)[C@H]23)OCO4)cc(OC)c1O", "note": "[etoposide] + O=C(Nc1cccc(Cl)c1)Nc1ncc(CCNc2ncnc3ccsc23)s1 [SNS314] (first compound 0.1 µM, partner dose 0.004 µM)", "cell count": 71.6}, {"smiles": "CCN(CC)CCNC(=O)c1c(C)[nH]c(/C=C2\\C(=O)Nc3ccc(F)cc32)c1C", "note": "[sunitinib] + CCCS(=O)(=O)Nc1ccc(F)c(C(=O)c2c[nH]c3ncc(Cl)cc23)c1F [PLX4720] (first compound 2 µM, partner dose 0.4 µM)", "cell count": 64.3}, {"smiles": "C[C@]1(O)C[C@@H](c2nc(-c3ccc4ccc(-c5ccccc5)nc4c3)c3c(N)nccn32)C1", "note": "+ Nc1cccc2c1CN(C1CCC(=O)NC1=O)C2=O [lenalidomide] (first compound 2 µM, partner dose 5 µM)", "cell count": 88.8}, {"smiles": "Cn1cnc2c(F)c(Nc3ccc(Br)cc3Cl)c(C(=O)NOCCO)cc21", "note": "[selumetinib] + CCc1ccc(CCOc2ccc(CC3SC(=O)NC3=O)cc2)nc1 [pioglitazone] (first compound 0.075 µM, partner dose 10 µM)", "cell count": 49.6}, {"smiles": "CCN(CC)CCNC(=O)c1c(C)[nH]c(/C=C2\\C(=O)Nc3ccc(F)cc32)c1C", "note": "[sunitinib] + CCCCCCCCc1ccc(CCC(N)(CO)CO)cc1 [fingolimod] (first compound 2 µM, partner dose 10 µM)", "cell count": 17.2}, {"smiles": "CCN(CC)CCNC(=O)c1c(C)[nH]c(/C=C2\\C(=O)Nc3ccc(F)cc32)c1C", "note": "[sunitinib] + NCC(=O)Nc1ccc(-n2nc(C(F)(F)F)cc2-c2ccc3c(ccc4ccccc43)c2)cc1 [OSU03012] (first compound 2 µM, partner dose 5 µM)", "cell count": 59.4}, {"smiles": "Cn1cnc2c(F)c(Nc3ccc(Br)cc3Cl)c(C(=O)NOCCO)cc21", "note": "[selumetinib] + O=C(O)C(=O)Nc1sc2c(c1C(=O)O)CCNC2 [TCS401] (first compound 0.075 µM, partner dose 8.33333 µM)", "cell count": 54.4}, {"smiles": "COc1cc([C@@H]2c3cc4c(cc3[C@@H](O[C@@H]3O[C@@H]5CO[C@@H](C)O[C@H]5[C@H](O)[C@H]3O)[C@H]3COC(=O)[C@H]23)OCO4)cc(OC)c1O", "note": "[etoposide] + C=C(c1ccc(C(=O)O)cc1)c1cc2c(cc1C)C(C)(C)CCC2(C)C [Bexarotene] (first compound 0.1 µM, partner dose 10 µM)", "cell count": 60.6}, {"smiles": "C[C@]1(O)C[C@@H](c2nc(-c3ccc4ccc(-c5ccccc5)nc4c3)c3c(N)nccn32)C1", "note": "+ C=C(c1ccc(C(=O)O)cc1)c1cc2c(cc1C)C(C)(C)CCC2(C)C [Bexarotene] (first compound 2 µM, partner dose 10 µM)", "cell count": 74.9}, {"smiles": "C[C@]1(O)C[C@@H](c2nc(-c3ccc4ccc(-c5ccccc5)nc4c3)c3c(N)nccn32)C1", "note": "+ NC1(c2ccc(-c3nc4ccn5c(=O)[nH]nc5c4cc3-c3ccccc3)cc2)CCC1 [MK2206] (first compound 2 µM, partner dose 2 µM)", "cell count": 78.5}]}]}
